# From PubChem BioAssay (NCI)
# More than one record can exist for a structure, and the calls need not agree.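 Activity criterion: percent growth below 10, measured after cells in 96-well plates were exposed to a single compound concentration for 48 hours.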 A number of entries come with more than one value. The other results are left out here. The source may hold further records. The screen tested this drug many times, at its own concentration, as given; one value stands for one run. Additions like (4×) give the number of equal values in this list.
# What was measured:
# NCI-H522 lung = test: NCI-60 one-dose screen, 48 h (100 = growth as untreated, 0 = no growth, -100 = all killed); conditions: 25 µM
# A549/ATCC NSCLC = test: as above; conditions: 0.25 µM
structure (smiles),measurement,setting,value
COc1cccc2c1C(=O)c1c(O)c3c(c(O)c1C2=O)C[C@@](O)(C(=O)CO)C[C@@H]3OC1CC(N)C(O)C(C)O1 (stereo not given in full),growth,NCI-H522 lung; runs of 1992,"active: -93.6 (3×), -78.8, -89.6, -82.3, -65.3, -97.7, -80.7, -91.2 (3×), -98.7, -73.7, -87.8 (2×), -95.2 (2×), -99.1, -83.6 (2×), -96.5, -90.2 (2×), -99.5, -98.9, -86.3, -96.8 (2×), -88.1, -97, -91.4, -70.2, -77.4, -94.1 (2×), -75.6, -88.9, -94.4, -92.5, -95.9, -97.9, -98, -86.4, -100 (5×), -83.4, -93.7, -78.3, -79, -96.4, -84.6, -87.1, -92.2, -86.9, -74.2, -90.1, -93.8, -89.1 (2×), -87.6, -74.7, -85.6, -79.8, -96.3, -97.5, -98.6, -93.1, -79.7, -90.9, -53.2, -88.8, -81.7, -89.4, -87.9, -62.1, -77.9, -94.6 (2×), -90.5, -98.1, -93.4, -94.9, -92.9 (2×), -88, -72.4, -69.7, -73, -94.8, -95, -93.2 (2×), -96.6, -96.2, -99.6, -62.6, -94.7, -94.2, -99.9, -98.2, -81.1, -95.5, -98.8, -45.4, -62.7, -55.9, -84.2, -50.4, -91.5, -97.1, -21.9, -49.4, -95.3%"
same,growth,NCI-H522 lung; runs of 1993,"active: -92.7 (2×), -52.4, -62.5, -56.1, -99.6, -79.2, -60.8, -85.9, -71.6, -70.6, -77.6, -51, -59.6, -64.6, -53.1, -95.1, -61.3, -85.3, -76.4, -63.8, -79.4, -56, -72.2, -84.3, -58.2, -55.9, -84.8, -37, -99.4, -68.3, -71.8, -99.8, -68, -90.9, -59.9, -74.9, -92.1, -42.2, -96.8, -32.3, -91.7%"
same,growth,NCI-H522 lung; runs of 1994,"active: -57, -56.4, -49, -29.3, -86.3, -75.2, -39.9, -92.7, -80, -27.5, -95.8, -34.1, -53.5, -80.2, -47.5, -86.2, -100 (2×), -85.2, -61.7, -73.9, -98.1, -56.5, -31.8, -97.3, -61, -72, -94.6, -69.7, -65.4%"
same,growth,NCI-H522 lung; runs of 1995,"active: -56.8, -70.9, -80.3, -77.7, -68.6, -71.7, -74.3, -72.8, -74.5, -80 (3×), -52.8, -55.7, -63.1, -53, -90.9, -45.7, -72 (2×), -73.9, -87.5, -73.2, -89.8, -100 (2×), -38.4, -68.1, -77.6, -66.9, -76.7, -68.3, -68.5, -59, -40.2, -97.1, -25.7, -48.7%"
same,growth,NCI-H522 lung; runs of 1996,"active: -60.8 (2×), -75.4, -83.8, -32.7, -51, -92.5, -48.4, -70.2, -78.6, -59.8, -46.4, -94.3, -68.2, -35.9, -52.3, -96.1, -99.5, -31.3, -41.6, -67.9, -69, -84.4, -78.2, -23.7, -70.5, -75.9, -77, -93.9, -81.4, -53.9, -80.1, -93.6, -87.8, -90.5, -73.2, -64.2, -53.3, -42.9, -60, -48.5, -85.5, -65.3, -37.5, -66.9, -93.7, -93, -52.5, -70.3, -79.6% and inactive: 12.4%"
same,growth,NCI-H522 lung; runs of 1997,"active: -32.2, -39.2, -19.8, -74, -88.3, -57.9, -74.9, -92.6, -80.9, -54.7, -91.7, -59.3, -27.2, -74.1, -77.7, -75.4, -80.7, -96.4, -73.5, -44.6, -86.2, -73.2, -51.6, -52.3, -87.8, -98.3, -80, -88.5, -70.6, -76.1, -80.5, -94.4, -74.8, -78.6, -68%"
same,growth,NCI-H522 lung; runs of 1998,"active: -56.7, -79.1, -83, -39.1, 3.38, -74.6, -98.3, -10.5, -84.4, -23.2, -49.7, -47.3, -96.6, -90.4, -35.7, -33.6, -90.1, -93.8, -48.7, -52.2, -69.2, -90.7, -66.4, -34.6%"
same,growth,NCI-H522 lung; runs of 1999,"active: -100 (2×), -91, -73.2, -96.1, -65, -80.6, -66.8, -65.5, -25.9, -65.8, -4.71, -94.8, -66, -24.4%"
same,growth,NCI-H522 lung; runs of 2000,"active: -100%, -14.8%, -67.7%"
same,growth,A549/ATCC NSCLC; runs of 2006,inactive: 33.6% and active: -1.33%
same,growth,A549/ATCC NSCLC; runs of 2007,"inactive: 37.8, 49.1 (2×), 32.6, 44.6, 42.3, 35.9, 45.4, 40.1 (2×), 46.8, 44, 43.3 (2×), 44.5, 33.5 (2×), 41.6, 40.6, 37.7, 46.9, 42.8, 53.9, 52.7, 51.1, 47.6, 36.3 (2×), 48, 30.5, 38.1, 49.6, 42.7, 45.7, 60.9%"
same,growth,A549/ATCC NSCLC; runs of 2008,"inactive: 40 (2×), 49.6, 33.6, 34.8, 47, 41.8, 50.1, 45.7, 40.1, 40.4, 50.3, 44, 57, 28, 36.3, 49.9, 50.7, 43.5 (2×), 26.2, 23.1, 37.6, 11.7, 39.9, 86.9, 38.6 (2×), 44.4, 32.3, 38.3, 44.2, 37, 32.9, 37.3, 36.9, 43.1, 37.7, 29.5, 42.6, 45.1, 50.4, 47.2, 44.6, 36.2, 46.2, 48, 42.2, 18, 30.2% and active: 9.14%"
same,growth,A549/ATCC NSCLC; runs of 2009,"inactive: 52, 50.1, 45.6, 36.8, 36.3, 50.3, 57.5, 60.3, 49.5, 49.9, 45, 53.6, 50.4, 43.3, 46.7, 42.4, 46.2 (2×), 45.9 (2×), 42.8, 32.5, 35.6, 34.4, 38.7, 37.4, 42.5, 21, 42.6 (2×), 37.8, 36.2, 40.2 (2×), 51, 44.6, 22.4, 40.1, 32.7, 38.8, 38.1 (2×), 37 (3×), 42.3, 34.8, 34.3, 31.2, 40.8, 37.5, 27.3, 32.6, 30, 21.4, 33.3, 50, 43.1, 45.7, 28.8, 44.4, 40.4%"
same,growth,A549/ATCC NSCLC; runs of 2010,"inactive: 37.7, 43.1, 36.6, 36.4, 44.3, 42.4, 44.5, 40.8 (2×), 45.6, 40.6 (2×), 40, 37.2 (3×), 34.6, 36.5 (2×), 33.8, 39.9, 37.6, 40.2, 41.6 (2×), 36.3, 28, 36.8, 42.7, 37.8, 45, 39.8, 41.7, 40.3, 11.6, 37.4, 38.6, 41.4, 35.4, 38.7, 35.6, 32.1, 40.7, 37.1%"
same,growth,A549/ATCC NSCLC; runs of 2011,"inactive: 36.4 (2×), 33.3, 35.8, 40, 33, 22.2, 37.9, 33.6, 24.7, 36.2 (2×), 37.7, 37.5, 35.3 (2×), 38.6 (2×), 40.8, 40.4 (2×), 38.9, 39.3, 28.3, 41.3, 39.2, 33.7, 38.3, 42.3 (2×), 37.3, 34.2, 33.8, 33.2, 39.9, 31, 32.7, 28.2, 35.9 (2×), 33.1 (2×), 31.1, 31.2, 32.2, 29.7, 35.6 (2×), 36.8, 32.9, 37, 34.3, 34.4%"
